This passage reports survival results from PubChem BioAssay AID463173 (ICCB-Longwood Screening Facility, Harvard Medical School, 2010).

The campaign covered roughly 52,000 compounds. About 1,700 (3.3%) were called active. Rule as the data show it: active = survival mostly below about 52% (no sharp cut-off); inactive = mostly above about 56%. This is one part of the list.

For this assay, the system named is Wild type. Description: growth inhibition of S. aureus wild type versus tarO mutant, primary screen, teichoic acid synthesis inhibitors, RN4220, OD600 (AID 463173). Conditions: S. aureus RN4220 wild type/DeltatarO growth, OD600, 18 h, active compounds read low, screened at 18.75 µg/mL (by protocol).
On to `Cc1ccc(SCC(=O)Nc2ccc3oc(-c4cccc(C)c4)nc3c2)cc1`, for which the survival is inactive: 96%.

Regarding `COc1cccc(-c2nc(CS(=O)CC(=O)N3CCN(c4cccc(C(F)(F)F)c4)CC3)c(C)o2)c1` (stereo not given), the survival was active: -2%.

With `O=C(Cn1cnc2c(cnn2-c2ccccc2)c1=O)N1CCCc2ccccc21`, the survival is inactive: 107%.

Take `CC1(C)CC(=O)C2=C(C1)N(CC(=O)O)C1=C(C(=O)CC(C)(C)C1)C2c1ccccc1`: the survival is inactive: 105%.

In the case of `CC(C(=O)NCc1ccco1)N1C(=O)c2ccccc2C1=O` (stereo not given), the survival is inactive: 107%.

With `CCN1C(=O)CC(C(=O)Nc2ccc(OC)cc2)SC1=Nc1ccc(C)c(C)c1` (stereo not given), the survival was inactive: 74%.

Take `O=C(Cn1cc(SCc2ccccc2Cl)c2ccccc21)N1CCCCCC1`: the survival was inactive: 83%.

In the case of `COc1ccc(OC)c(CNS(=O)(=O)c2ccc(-c3cc(C(F)(F)F)on3)s2)c1`, the survival was active: -6%.

For the compound `CCOC(=O)c1noc2ncn(CC(=O)O)c(=O)c12`, the survival was inactive: 68%.

`O=C(NCCC1=CCCCC1)c1ccc2c(c1)N(Cc1ccccc1)C(=O)c1ccccc1S2(=O)=O`: the survival is inactive: 95%.

Regarding `Cc1ccc(CNC(=O)CN(c2cc(C)cc(C)c2)S(=O)(=O)c2c(C)[nH]c(=O)[nH]c2=O)cc1`, the survival is inactive: 89%.

`Cc1ccc(N2CCN(C(=O)c3nn(C)c4c3CSc3ccccc3-4)CC2C)cc1` (stereo not given): the survival is inactive: 61%.

Turning to `O=C(NC1CCCC1)c1ccc2c(c1)N(Cc1ccc(F)cc1)C(=O)c1ccccc1S2`, the survival is inactive: 81%.

With `CCc1ccc(C2c3c(n[nH]c3C)C(=O)N2c2ccc(C)cc2)cc1` (stereo not given), the survival was inactive: 44%.

For the compound `CCc1cccc(NC(=O)CCS(=O)(=O)c2ccc(C)cc2)c1`, the survival is inactive: 79%.

For `CC(C)CCNC(=O)CSc1nc2ccsc2c(=O)n1Cc1ccccc1Cl`, the survival is inactive: 72%.

Take `COc1ccc(NC(=O)C(Cc2ccccc2)n2cccc2)c(OC)c1` (stereo not given): the survival was inactive: 78%.

`O=S(=O)(Nc1nc2n(n1)C(c1ccccc1)C=C(c1ccc(Cl)cc1)N2)c1ccccc1` (stereo not given): the survival is inactive: 65%.

In the case of `O=C(c1cc2ccccc2oc1=O)N(Cc1ccc2c(c1)OCO2)CC1CCCO1` (stereo not given), the survival is inactive: 98%.

Turning to `COC(=O)CSc1n[nH]c(C)n1`, the survival was inactive: 108%.

For `COc1ccc(-c2noc(-c3ccccc3NC(=O)c3cc(OC)c(OC)c(OC)c3)n2)cc1`, the survival was inactive: 79%.

For `COc1ccccc1N1CCN(C(=O)CSc2nc(-c3ccc(C(C)C)cc3)no2)CC1`, the survival was inactive: 124%.

For `O=C(CSc1nc2ccccc2o1)NN=C1CCCC1`, the survival was inactive: 102%.

Turning to `O=C(NCc1ccc(Cl)cc1)C1CCCN(c2ncnc3onc(-c4ccc(F)cc4)c23)C1` (stereo not given), the survival is inactive: 68%.

On to `Cc1cccc(NC(=O)c2c(Br)sc3c2CCCC3)c1`, for which the survival is active: 0%.
